# This is one part of the list. Repeats are few or missing, and single values can be far off.
# What was measured:
# Experiment in all cases: cell count relative to DMSO control; melanoma cells; higher = more viable cells
# Conditions in all cases: library dose: standard library concentration; 72 h
# [1] = tested on: G361
# [2] = tested on: IPC-298
# [3] = tested on: IST-MEL1
# [4] = tested on: LB2518-MEL
# [5] = tested on: LOXIMVI
# [6] = tested on: MEL-HO
# [7] = tested on: MZ2-MEL
# [8] = tested on: MeWo
# [9] = tested on: RPMI7951
# [10] = tested on: RVH-421
# [11] = tested on: SkMel28
# [12] = tested on: SkMel2
# [13] = tested on: SkMel30
# [14] = tested on: SkMel5
# [15] = tested on: UACC257
# [16] = tested on: UACC62
# [17] = tested on: WM115
# [18] = tested on: WM1716
# [19] = tested on: WM1745
# [20] = tested on: WM3526
# 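Also: cells treated in 1,536-well plates, then fixed and DAPI-stained, with nuclei counted from automated high-throughput microscope images.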
SMILES,cell count [1] [%],cell count [2] [%],cell count [3] [%],cell count [4] [%],cell count [5] [%],cell count [6] [%],cell count [7] [%],cell count [8] [%],cell count [9] [%],cell count [10] [%],cell count [11] [%],cell count [12] [%],cell count [13] [%],cell count [14] [%],cell count [15] [%],cell count [16] [%],cell count [17] [%],cell count [18] [%],cell count [19] [%],cell count [20] [%]
"CC(=O)c1c(C)c2cnc(Nc3ccc(N4CCNCC4)cn3)nc2n(C2CCCC2)c1=O [palbociclib] + CO[C@@H]1[C@H](N(C)C(=O)c2ccccc2)C[C@H]2O[C@]1(C)n1c3ccccc3c3c4c(c5c6ccccc6n2c5c31)C(=O)NC4 [Midostaurin] (first compound 0.2 µM, partner dose 0.4 µM)",49.2,68.1,61.5,58.9,55.9,81.7,55.6,48,42.7,54.2,40.9,48.6,83.1,51.9,74.6,71,47.5,40.6,36,41.3
"CC(=O)c1c(C)c2cnc(Nc3ccc(N4CCNCC4)cn3)nc2n(C2CCCC2)c1=O [palbociclib] + Clc1ccc(Nc2nnc(Cc3ccncc3)c3ccccc23)cc1 [vatalanib] (first compound 0.2 µM, partner dose 10 µM)",60.1,60,60.1,66.3,63.6,68.8,49.1,41.1,64.4,53.8,37.5,53.2,65.1,44.4,72.9,54.6,54.2,43.4,63.1,55.7
"Nc1ccn([C@@H]2O[C@H](CO)[C@@H](O)C2(F)F)c(=O)n1 [gemcitabine] + CCCS(=O)(=O)Nc1ccc(F)c(C(=O)c2c[nH]c3ncc(Cl)cc23)c1F [PLX4720] (first compound 0.002 µM, partner dose 0.4 µM)",36.8,35.9,45.2,64.6,68.1,52.9,70.9,47.4,86.2,68.6,35.8,88.6,71.5,87.9,101,44.3,80.6,64.5,60.5,58.2
"CO[C@H]1C[C@@H]2CC[C@@H](C)[C@@](O)(O2)C(=O)C(=O)N2CCCC[C@H]2C(=O)O[C@H]([C@H](C)C[C@@H]2CC[C@@H](OCCO)[C@H](OC)C2)CC(=O)[C@H](C)/C=C(\C)[C@@H](O)[C@@H](OC)C(=O)[C@H](C)C[C@H](C)/C=C/C=C/C=C/1C [everolimus] + CCCS(=O)(=O)Nc1ccc(F)c(C(=O)c2c[nH]c3ncc(Cl)cc23)c1F [PLX4720] (first compound 0.1 µM, partner dose 0.4 µM)",46.9,55.7,81,70.1,81.8,71.6,61.9,81.5,77.8,82.3,27.7,72,61.6,61.4,96.9,52.5,55.4,68,84.5,46.3
"Nc1nc(F)nc2c1ncn2[C@@H]1O[C@H](CO)[C@@H](O)[C@@H]1O [fludarabine] + CN(C)S(=O)(=O)c1ccc2c(c1)/C(=C/c1cc3c([nH]1)CCCC3)C(=O)N2 [SU6656] (first compound 1 µM, partner dose 2 µM)",67,77.3,61.7,67.7,93.3,77.3,86.5,71,51.6,92.6,1.57,2.24,17.9,34.1,35,59.5,45.6,58.4,69.2,18.3
"CC(=O)O[C@@]12CO[C@@H]1C[C@H](O)[C@@]1(C)C(=O)[C@H](O)C3=C(C)[C@@H](OC(=O)[C@H](O)[C@@H](NC(=O)OC(C)(C)C)c4ccccc4)C[C@@](O)([C@@H](OC(=O)c4ccccc4)[C@H]21)C3(C)C [Docetaxel] + COc1ccc(Cl)c(Nc2nc3ccccc3nc2NS(=O)(=O)c2cccc(NC(=O)C(C)(C)N)c2)c1 [XL147] (first compound 0.0005 µM, partner dose 4 µM)",15.9,39.4,43.7,35.6,89.3,46.9,45.2,32,16.2,53.9,24.1,28.4,52.5,35.3,72.6,46,43.1,37.3,39.2,52.5
"Nc1ncn([C@H]2C[C@H](O)[C@@H](CO)O2)c(=O)n1 [decitabine] + C=CCNC1=C2C[C@@H](C)C[C@H](OC)[C@H](O)[C@@H](C)/C=C(\C)[C@H](OC(N)=O)[C@@H](OC)/C=C\C=C(/C)C(=O)NC(=CC1=O)C2=O [Tanespimycin] (first compound 0.5 µM, partner dose 0.01 µM)",63.9,67.3,42.8,95,82.6,76.6,81,52.1,15.7,75.7,59.9,97.1,106,63.1,103,53.4,27.1,62.2,51.5,69.6
"Nc1ccn([C@@H]2O[C@H](CO)[C@@H](O)C2(F)F)c(=O)n1 [gemcitabine] + CC(C)(C)c1cnc(CSc2cnc(NC(=O)C3CCNCC3)s2)o1 [SNS-032] (first compound 0.002 µM, partner dose 0.05 µM)",46.5,76.5,36.6,55.2,67.1,64,83.2,43.3,19.6,54,90.6,68.6,103,69.4,101,75.3,79.7,52.2,51.6,114
"CC(=O)O[C@@]12CO[C@@H]1C[C@H](O)[C@@]1(C)C(=O)[C@H](O)C3=C(C)[C@@H](OC(=O)[C@H](O)[C@@H](NC(=O)OC(C)(C)C)c4ccccc4)C[C@@](O)([C@@H](OC(=O)c4ccccc4)[C@H]21)C3(C)C [Docetaxel] + NCC(=O)Nc1ccc(-n2nc(C(F)(F)F)cc2-c2ccc3c(ccc4ccccc43)c2)cc1 [OSU03012] (first compound 0.0005 µM, partner dose 5 µM)",12.8,39.9,47.5,36.9,55.4,42.1,39,22.6,28.5,34.2,14,18.7,25.1,35.4,63.7,34.4,26.3,33.4,29.8,34.9
"Nc1ccn([C@@H]2O[C@H](CO)[C@@H](O)C2(F)F)c(=O)n1 [gemcitabine] + Nc1nc(F)nc2c1ncn2[C@@H]1O[C@H](CO)[C@@H](O)[C@@H]1O [fludarabine] (first compound 0.002 µM, partner dose 1 µM)",41.5,37.1,32.2,69,59.3,49,58.3,48.2,26.5,47.5,4.22,1.02,16,17.9,36.2,69.8,77.6,74,48.6,23.1

# — the supplement of paper PMC4604168 (melanoma cell lines)
